# Test results as given in publication PMC4336329 (PLoS ONE, 2015).
# Hit rate of the full screen: of about 310,000 compounds, about 2,200 (0.71%) showed an effect of 50% or more. The effect is printed as a negative number. The list shows a part of the results.
# Molecular target: human ether-à-go-go-related gene (hERG) potassium channel (human, UniProt Q12809)
# Experiment: primary screen, population patch clamp on CHO cells stably expressing hERG
# human ether-à-go-go-related gene (hERG) potassium channel, sequence (Q12809 whole entry, looked up): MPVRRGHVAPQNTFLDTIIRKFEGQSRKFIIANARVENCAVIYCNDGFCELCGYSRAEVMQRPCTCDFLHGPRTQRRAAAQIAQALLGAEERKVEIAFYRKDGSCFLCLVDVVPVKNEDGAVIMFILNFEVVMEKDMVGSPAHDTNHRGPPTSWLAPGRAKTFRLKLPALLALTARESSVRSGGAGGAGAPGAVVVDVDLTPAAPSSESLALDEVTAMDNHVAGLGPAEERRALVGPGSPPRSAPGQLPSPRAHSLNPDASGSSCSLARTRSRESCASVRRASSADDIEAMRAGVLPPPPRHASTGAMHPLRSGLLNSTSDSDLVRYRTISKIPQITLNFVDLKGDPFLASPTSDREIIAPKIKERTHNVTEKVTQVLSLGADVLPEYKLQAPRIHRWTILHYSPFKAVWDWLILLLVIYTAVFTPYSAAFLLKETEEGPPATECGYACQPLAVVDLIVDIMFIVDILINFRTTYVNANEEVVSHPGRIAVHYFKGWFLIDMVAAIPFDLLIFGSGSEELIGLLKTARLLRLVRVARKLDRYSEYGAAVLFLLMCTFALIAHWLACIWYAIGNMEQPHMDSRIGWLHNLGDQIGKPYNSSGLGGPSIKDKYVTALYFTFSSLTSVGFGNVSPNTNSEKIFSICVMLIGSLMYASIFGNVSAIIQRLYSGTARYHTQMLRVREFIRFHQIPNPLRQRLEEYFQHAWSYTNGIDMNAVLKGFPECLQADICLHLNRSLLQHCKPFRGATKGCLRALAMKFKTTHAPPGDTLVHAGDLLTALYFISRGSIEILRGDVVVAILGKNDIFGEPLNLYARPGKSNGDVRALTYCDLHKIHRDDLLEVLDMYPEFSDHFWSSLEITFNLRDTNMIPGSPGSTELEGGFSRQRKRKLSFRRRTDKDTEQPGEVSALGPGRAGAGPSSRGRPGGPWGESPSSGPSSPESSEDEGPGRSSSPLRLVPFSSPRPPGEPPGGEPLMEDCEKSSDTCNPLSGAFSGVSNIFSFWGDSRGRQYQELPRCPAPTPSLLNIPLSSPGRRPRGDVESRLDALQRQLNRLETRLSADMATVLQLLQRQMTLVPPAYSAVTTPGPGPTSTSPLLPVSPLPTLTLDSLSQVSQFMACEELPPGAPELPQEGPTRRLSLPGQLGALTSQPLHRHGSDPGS
row,SMILES,"hERG current change (%, negative = inhibition) at 1uM [%]"
1,Cc1ccc(NC(=O)Nc2nnc(-c3ccncc3)s2)cc1C,12.6
2,CN1C(=O)C(C)(C)c2cc(S(=O)(=O)N3CCCC(C(=O)NCc4ccccc4Cl)C3)ccc21 (stereo not shown),3.68
3,COc1ccccc1-n1c(=O)oc2ccc(Cl)cc2c1=O,8.82
4,COc1ccc(-c2csc(NC(=S)NC(=O)c3ccccc3)n2)cc1Br,5.56
5,O=C(COc1ccc([N+](=O)[O-])cc1)Nc1ccc(NC(=O)c2ccccc2)cc1,17.5
6,Nc1[nH]c(=O)[nH]c(=O)c1N=Nc1cccc(Cl)c1,-2.79
7,COc1ccc(NC(=O)c2cc(S(=O)(=O)N3CCc4ccccc43)cn2C)cc1,6.13
8,O=C(N/N=C/C=C/c1ccco1)/C(=C/c1ccccc1)NC(=O)c1ccccc1,-11.6
9,CCN(C(=O)C1CCN(S(=O)(=O)c2ccc3c(c2)oc(=O)n3C)CC1)c1cccc(C)c1,9.72
10,CS(=O)(=O)N(CC(=O)Nc1ccccc1C(=O)N1CCOCC1)c1ccc(Cl)cc1,11.5
11,COc1ccccc1C(=O)Nc1ccnn1C1CCN(CCC(C)c2ccc(C)o2)CC1 (stereo not shown),-88.2
12,CC1=NN(C(=O)COc2ccccc2C)C(O)(c2ccc(Cl)cc2)C1 (stereo not shown),9.7
13,CCc1cc(C(=O)c2ccc(Br)cc2)c(NC(=O)CN(CC)CC)s1,-0.0255
14,COc1ccc(CCn2c(Br)nc3c2c(=O)[nH]c(=O)n3C)cc1,1.97
15,C=CCN1C(=O)CN=C1Nc1cc(C)cc(C)c1.Cl,8.44
16,CCOC(=O)C1=C(C)N=C(/N=C/N(C)C)SC1c1ccccc1 (stereo not shown),23.6
17,Cc1onc(-c2c(F)cccc2Cl)c1C(=O)OCC(=O)c1c(N)n(C)c(=O)n(C)c1=O,10.2
18,CC1CN(CCC(=O)Nc2ccc3c(c2)OCO3)CC(C)O1.Cl (stereo not shown),5.92
19,CC(=O)N1CC2(c3ccccc3)CN(C(C)=O)CC(c3ccccc3)(C1)C2=O,1.19
20,O=C(O)C1CSC2(c3ccc4c(c3)OCCO4)CCC(=O)N12 (stereo not shown),9.84
21,COc1ccccc1CCNC(=O)c1cc(COc2cccc(C(F)(F)F)c2)on1,14.9
22,C=CCn1c(O)c(C(C)=NCCC(c2ccccc2)c2ccccc2)c(=O)[nH]c1=O,-1.45

row,SMILES,"hERG current change (%, negative = inhibition) at 1uM [%]"
1,N=C1C(=O)OCC1c1ccccc1NC(=O)Nc1ccccc1 (stereo not shown),18.4
2,O=C(c1cccs1)N1CCN(c2nc3c(F)cc(F)cc3s2)CC1,-1.62
3,C=CCNC(=O)CSc1nc2sc(C)c(C)c2c(=O)[nH]1,12.4
4,C/C(=N\Nc1ccc([N+](=O)[O-])cc1)c1ccc(-n2nncc2C(C)(C)C)cc1,1.42
5,Cc1ccc(C(=O)NC(=S)Nc2ccccc2N2CCOCC2)cc1C,5.97
6,CCc1n[nH]c(=S)n1/N=C/c1c(C)nn(-c2ccccc2)c1Cl,13.3
7,O=C(CSc1nnc(-c2ccco2)o1)Nc1ccccc1Cl,11.7
8,CC(=O)OCC1=C(C(=O)O)N2C(=O)C(NC(=O)CCn3nc(C)c(Cl)c3C)C2SC1 (stereo not shown),7.84
9,CCOC(=O)C1=C(C)Nc2nc(C)nn2C1c1ccc(OC)c(OC)c1 (stereo not shown),11.4
10,CC(=O)c1ccc(NC(=O)C2CCCN(c3ncnc4c3nc3n4CCCCC3)C2)cc1 (stereo not shown),3.39
11,O=C(NC1CCCCCC1)C1CCN(C(=O)c2ccc(Cl)cc2)CC1,2.62
12,O=C(Nc1ccc2ccccc2c1)c1onc2c1CCCC2,7.65
13,Cn1c(=O)[nH]c(NCCc2ccc(O)cc2)c([N+](=O)[O-])c1=O,10.6
14,O=C(CSc1cn(CCNC(=O)c2c(F)cccc2F)c2ccccc12)NCC1CCCO1 (stereo not shown),13.4
15,CC1(NC(=O)c2cc(S(=O)(=O)N3CCCCC3)ccc2Cl)CCS(=O)(=O)C1 (stereo not shown),3.68
16,COc1ccc2[nH]cc(/C=C/C(=O)c3ccccc3)c2c1,15
17,O=C(NC(=S)Nc1ccc2[nH]c(=O)[nH]c2c1)c1cccc(F)c1,13.9
18,Cc1ccc(CNC(=O)CNC(=O)[C@@H]2Cc3ccccc3CN2)cc1,10.8
19,CC1CN(O)C2CCc3nonc3C12O (stereo not shown),0.83
20,CCOc1ccccc1N(CC(=O)N1CCC(C)CC1)S(=O)(=O)c1ccc(C)cc1,6.58
21,Nc1nc(CN2CCN(c3cccc(Cl)c3)CC2)nc(N2CCCc3ccccc32)n1,6.42
